{"source": "PubChem BioAssay AID493005", "about": "(National Center for Advancing Translational Sciences (NCATS), 2010)", "note": "The whole screen tested about 340,000 compounds, of which fewer than 10 were called active. This list was built around the results that the source calls inconclusive (neither active nor inactive); the mix of calls is not that of the screen. Calls come from the whole dose curve; as a rule, active = well fitted inhibition curve with a large enough effect in the main read-out, with a control signal flat (not every such curve was filed as active); inconclusive = small, poorly fitted or top-dose-only effect, or effect the other way, or a change in a side signal; inactive = no such curve, though single readings can be large or run the other way. Potencies of inconclusive entries are doubtful fits and often do not repeat. “Side channel” marks fits to a control or component signal instead of the main read-out. Potency is the fitted concentration of half-maximal effect; tags give direction and shape of the fitted curve or compound fluorescence and quenching.", "data": [{"target": "Tumor susceptibility gene 101 protein (Homo sapiens) (UniProt Q99816)", "sequence (Q99816 whole entry, looked up, the tested form may be a part)": "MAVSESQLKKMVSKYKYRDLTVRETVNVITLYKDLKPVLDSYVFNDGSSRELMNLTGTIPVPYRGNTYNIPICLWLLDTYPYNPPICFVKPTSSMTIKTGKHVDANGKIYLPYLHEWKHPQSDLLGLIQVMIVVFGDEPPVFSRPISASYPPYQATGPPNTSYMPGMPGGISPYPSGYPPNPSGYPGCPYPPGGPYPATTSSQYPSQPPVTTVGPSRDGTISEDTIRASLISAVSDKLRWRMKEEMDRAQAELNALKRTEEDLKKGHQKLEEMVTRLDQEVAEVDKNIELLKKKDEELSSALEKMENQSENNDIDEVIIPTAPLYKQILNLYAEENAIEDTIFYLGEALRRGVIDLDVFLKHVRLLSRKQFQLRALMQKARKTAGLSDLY", "assay": "qHTS Assay for Iinhibitors of HIV-1 Budding by Blocking the Interaction of PTAP/TSG101; for activity change, negative = inhibition: % of control where 0% means no effect", "conditions": "Fluorescence polarization, FITC-PTAP peptide / Tsg101 binding; activity change, negative = inhibition: at 115 µM (top of the series)", "in_short": "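Fluorescence anisotropy tracks displacement of a FITC-tagged PTAP peptide (50 nM) from the Tsg101 binding domain (10 uM), following a 20 min room-temperature incubation at pH 7.5.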", "values": [{"compound": "CCOc1ccc(N(CC(=O)NCc2ccc(F)cc2)S(=O)(=O)c2c(C)noc2C)cc1", "Potency": "inconclusive: 44.7 µM [falling, partial curve, poor fit]"}, {"compound": "Cc1ccc(N=Cc2sc(O)c3ccccc23)c(C)c1", "Potency": "inconclusive: 56.2 µM [fluorescent, side channel, partial curve, poor fit]"}, {"compound": "CCC(C)n1c(=N)c(C#N)cc2c(=O)n3cccc(C)c3nc21", "note": "(centres undefined)", "Potency": "inconclusive: 89.1 µM [fluorescent, side channel, single point]"}, {"compound": "O=[N+]([O-])c1ccc(S(=O)(=O)N2CCN(Cc3c[nH]c4ccccc34)CC2)cc1", "activity change, negative = inhibition": "inactive: 0.536%"}, {"compound": "CC(C)(C)c1ccc(CN(Cc2ccco2)Cc2nnnn2C2CCCC2)cc1", "Potency": "inconclusive: 35.5 µM [quencher, side channel, partial curve, poor fit]"}, {"compound": "Cc1ccc(CNC(=O)C2CC(c3ccccc3C(F)(F)F)=NO2)cc1", "note": "(centres undefined)", "Potency": "inconclusive: 79.4 µM [quencher, side channel, partial curve, poor fit]"}, {"compound": "Clc1ccc(CNc2ccc(CNc3ncn[nH]3)cc2)c(Cl)c1", "activity change, negative = inhibition": "inactive: -3.76%"}, {"compound": "Cc1ccc2[nH]c(C)c(/C=C/c3cc[n+](C)cc3)c2c1", "Potency": "inconclusive: 56.2 µM [fluorescent, side channel, partial curve, poor fit]"}, {"compound": "Oc1[nH]c2ccccc2c1N=Nc1ccccc1", "Potency": "inconclusive: 56.2 µM [fluorescent, side channel, partial curve, poor fit]"}, {"compound": "ON(CCc1ccccn1)CCc1ccccn1", "Potency": "inconclusive: 44.7 µM [fluorescent, side channel, partial curve, poor fit]"}, {"compound": "O=c1oc2c(O)cccc2cc1-c1nc2ccccc2[nH]1", "Potency": "inconclusive: 2.82 µM [fluorescent, side channel, full curve, poor fit]"}, {"compound": "CCN1C(=O)/C(=C/C=C2/SCCN2C)SC1=S", "Potency": "inconclusive: 35.5 µM [fluorescent, side channel, partial curve, poor fit]"}, {"compound": "COc1cccc(OCc2cc(C(=O)N3CCN(c4ccccc4OC)CC3)no2)c1", "activity change, negative = inhibition": "inactive: 1.89%"}, {"compound": "CN(C)c1ccc(/C=C/C(=O)c2ccc3c(c2)OCO3)cc1", "Potency": "inconclusive: 31.6 µM [fluorescent, side channel, partial curve, poor fit]"}, {"compound": "N#Cc1c(N)n(-c2cccc(C(=O)O)c2)c2nc3ccccc3nc12", "Potency": "inconclusive: 31.6 µM [fluorescent, side channel, partial curve]"}, {"compound": "CCOC(=O)c1nn(-c2ccccc2)c(=O)c2c(NC(C)=O)scc12", "activity change, negative = inhibition": "inactive: 0.224%"}, {"compound": "CC(=O)Nc1ccc(NC(=O)Cc2sc(-c3cccnc3)nc2-c2ccc(C)cc2)cc1", "activity change, negative = inhibition": "inactive: 0.211%"}, {"compound": "Cc1ccc(S(=O)(=O)NCC(C)n2nc(C)cc2C)cc1", "note": "(centres undefined)", "activity change, negative = inhibition": "inconclusive: 60.8% [activator]"}, {"compound": "CN1C(=O)/C(=C\\c2ccc(N(C)C)cc2)OC1=S", "Potency": "inconclusive: 56.2 µM [fluorescent, side channel, partial curve, poor fit]"}, {"compound": "Oc1[nH]c2ccccc2c1N=Nc1ccccc1Cl", "Potency": "inconclusive: 56.2 µM [fluorescent, side channel, partial curve, poor fit]"}, {"compound": "O=C1NC(c2ccco2)Nc2sc3c(c21)CCN(Cc1ccccc1)C3", "note": "(centres undefined)", "Potency": "inconclusive: 44.7 µM [falling, partial curve, poor fit]"}, {"compound": "CCOC(=O)c1cnc(SCC(=O)c2ccc(C)cc2)nc1N", "activity change, negative = inhibition": "inactive: -1.38%"}, {"compound": "Cn1c(=O)c2[nH]c(N3CCCCC3)nc2n(C)c1=O", "Potency": "inconclusive: 89.1 µM [fluorescent, side channel, partial curve]"}, {"compound": "CCN(CC)c1ccc2cc(-c3nc(-c4cc5ccccc5oc4=O)cs3)c(=O)oc2c1", "activity change, negative = inhibition": "inconclusive: 19.9% [phenotype inactive]"}, {"compound": "COc1ccc(N=Cc2cc3c(cc2O)OC(N)=C(C#N)C3c2ccccc2)cc1", "note": "(centres undefined)", "Potency": "inconclusive: 79.4 µM [fluorescent, side channel, partial curve]"}, {"compound": "Cc1ncc([N+](=O)[O-])n1CCOC(=O)c1ccc(Br)cc1", "activity change, negative = inhibition": "inactive: -6.42%"}, {"compound": "S=c1[nH]nc(-c2ccccn2)n1/N=C/c1cccs1", "Potency": "inconclusive: 44.7 µM [fluorescent, side channel, partial curve]"}, {"compound": "COc1ccc(N/C=C2\\C(=O)CCc3c2oc2cc(Cl)c(O)c(Cl)c32)cc1", "Potency": "inconclusive: 56.2 µM [fluorescent, side channel, partial curve, poor fit]"}, {"compound": "COc1ccc2oc3ccccc3c(=O)c2c1", "Potency": "inconclusive: 89.1 µM [falling, single point]"}, {"compound": "Cc1nc(Cl)c2c(n1)NC1=C(O2)C(=O)CCC1", "Potency": "inconclusive: 56.2 µM [fluorescent, side channel, partial curve, poor fit]"}, {"compound": "COc1ccc(C2C(C(C)=O)=C(C)N=c3s/c(=C\\c4cc(C)n(C)c4C)c(=O)n32)c(OC)c1", "note": "(centres undefined)", "Potency": "inconclusive: 56.2 µM [fluorescent, side channel, partial curve, poor fit]"}, {"compound": "CN(c1ccc(O)cc1)c1nc(O)c(C2=c3ccccc3=NC2=O)s1", "Potency": "inconclusive: 39.8 µM [quencher, side channel, partial curve, poor fit]"}, {"compound": "CCCN1C(=O)c2cccc3c(N4CCCCC4)ccc(c23)C1=O", "Potency": "inconclusive: 56.2 µM [fluorescent, side channel, partial curve, poor fit]"}, {"compound": "COC(=O)C1C2CC3c4[nH]c5cc(OC)ccc5c4CCN3CC2CC(O)C1OC", "note": "(centres undefined)", "Potency": "inconclusive: 50.1 µM [fluorescent, side channel, partial curve, poor fit]"}, {"compound": "COCCNC(=S)N/N=C/c1c2ccccc2cc2ccccc12", "Potency": "inconclusive: 79.4 µM [fluorescent, partial curve, poor fit]"}, {"compound": "CCC(C(=O)NC(C)c1ccccc1)C(=O)NC(C)c1ccccc1", "note": "(centres undefined)", "activity change, negative = inhibition": "inactive: 1.31%"}, {"compound": "NC(=O)c1c(NC(=O)c2ccccc2)sc2c1CCN(Cc1ccccc1)C2", "Potency": "inconclusive: 79.4 µM [fluorescent, side channel, partial curve, poor fit]"}, {"compound": "Cc1cc2oc3ccc(NCCCn4ccnc4)cc3c(=O)c2cc1C", "Potency": "inconclusive: 31.6 µM [fluorescent, side channel, full curve]"}, {"compound": "Cc1cc(NC(=O)CSc2ccc(-c3ccccc3)nn2)no1", "activity change, negative = inhibition": "inactive: -1.51%"}, {"compound": "COc1ccc(CCn2c(=N)c(C(=O)NCc3ccco3)cc3c(=O)n4cccc(C)c4nc32)cc1", "Potency": "inconclusive: 79.4 µM [fluorescent, side channel, partial curve, poor fit]"}, {"compound": "Cc1ccc(/C=C2\\CCC3=C2OC(N)=C(C#N)C3c2ccc(C)cc2)cc1", "note": "(centres undefined)", "Potency": "inconclusive: 100 µM [fluorescent, side channel, partial curve, poor fit]"}, {"compound": "O=C(NC12CC3CC(CC(C3)C1)C2)c1cnccn1", "Potency": "inconclusive: 56.2 µM [fluorescent, side channel, partial curve, poor fit]"}, {"compound": "Cc1cccc2cc3c(N)c(C(=O)N4CCc5ccccc54)sc3nc12", "Potency": "inconclusive: 50.1 µM [fluorescent, side channel, partial curve, poor fit]"}, {"compound": "O=[N+]([O-])c1c(Nc2cccc(O)c2)cc(Cl)c2nonc12", "activity change, negative = inhibition": "inactive: -4.13%"}, {"compound": "CC(=O)N(c1ccc2oc(=O)sc2c1)S(=O)(=O)c1cccs1", "activity change, negative = inhibition": "inactive: -4.84%"}, {"compound": "CCOC(=O)C1CCN(C2=C(NS(=O)(=O)c3ccc(Cl)cc3)C(=O)c3ccccc3C2=O)CC1", "Potency": "inconclusive: 89.1 µM [quencher, side channel, partial curve, poor fit]"}, {"compound": "Clc1cccc(CSc2ncnc3c2ncn3C2CCCCO2)c1", "note": "(centres undefined)", "Potency": "inconclusive: 79.4 µM [quencher, side channel, single point]"}, {"compound": "CCSc1nnc(NC(=O)Nc2cccc(C)c2)s1", "activity change, negative = inhibition": "inactive: -4.44%"}, {"compound": "COc1ccc(-n2c(O)c(/C=N/NS(=O)(=O)c3cccc([N+](=O)[O-])c3)c3ccccc3c2=O)cc1OC", "Potency": "inconclusive: 50.1 µM [fluorescent, side channel, partial curve, poor fit]"}, {"compound": "O=C(NC1CCCCCC1)c1ccc(Br)o1", "activity change, negative = inhibition": "inactive: -0.616%"}, {"compound": "CSc1nnc(NC(=O)c2nc(S(=O)(=O)Cc3ccccc3F)ncc2Cl)s1", "activity change, negative = inhibition": "inactive: 3%"}, {"compound": "O=C(O)CCCN1C(=O)/C(=C\\C(Cl)=C\\c2ccccc2)SC1=S", "activity change, negative = inhibition": "inactive: -7.63%"}, {"compound": "CC(C)CC[n+]1ccccc1/C=C/c1ccc(N(C)C)cc1", "Potency": "inconclusive: 39.8 µM [fluorescent, side channel, partial curve, poor fit]"}, {"compound": "CCC(C)n1c(=N)c(C#N)cc2c(=O)n3ccccc3nc21", "note": "(centres undefined)", "Potency": "inconclusive: 70.8 µM [fluorescent, side channel, partial curve]"}, {"compound": "Cc1cc(Br)ccc1SCC(=O)OC/C(O)=C(\\C#N)c1nc2ccccc2[nH]1", "activity change, negative = inhibition": "inactive: 11.1%"}, {"compound": "Nc1ccc2nc(-c3cccc(-c4nc5ccc(N)cc5[nH]4)n3)[nH]c2c1", "Potency": "inconclusive: 44.7 µM [quencher, side channel, partial curve, poor fit]"}, {"compound": "Cc1ccc(-c2cn3nc(-c4ccccc4)c(-c4ccccc4)nc3n2)cc1", "Potency": "inconclusive: 56.2 µM [fluorescent, side channel, partial curve, poor fit]"}, {"compound": "O=c1oc2cc(O)ccc2cc1-c1nc2c(s1)CCc1ccccc1-2", "Potency": "inconclusive: 20 µM [fluorescent, side channel, full curve, poor fit]"}, {"compound": "Cc1ccc2[nH]c3c(c2c1)SC(C)(C)CC3=O", "activity change, negative = inhibition": "inactive: -0.636%"}]}]}
